Reference: the supplement of paper PMC11417369
Some of the results follow.

System: PfSIP2 AP2 domain 1 (GST-tagged)
Assay: gcPBM binding intensity (ln(normalized median fluorescence intensity)); higher = stronger DNA binding
How it was run: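 Using an Agilent 4 × 180k array, primer-extended double-stranded 36-bp intergenic genomic probes and negative controls were exposed for 1 h to GST-fused P. falciparum DNA-binding domains expressed in E. coli. Binding was carried out in 1× PBS with 1% milk, 0.2 mg/ml BSA, 0.5% salmon testes DNA and 0.03% Triton X-100, and protein was detected with Alexa488 anti-GST antibody and a 488 nm scan. Binding intensity is the highest Masliner-normalised natural-log median intensity across replicate spots of either probe orientation.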

| Sequence | gcPBM binding intensity (ln) |
| --- | --- |
| ATCGTGAATAATATCTGTACATATGAACACATATAT [XGTACX_site952] | 7.19 |
| TATGACCTTAGAAATTGTACAAGAAAAAATGTTACA [XGTACX_site7084] | 7.08 |
| ATATAAAATACATGGGTGCAATATATTAAACAAATA [GTGCAC_site9421] | 10.8 |
| GTTATAAATAAATACACACATACAAAAATATGACGT [CACACA_site1154] | 6.94 |
| TCACATACATGAAAATGTACTTTTATAATTCCATAA [XGTACX_site1836] | 7.01 |
| TAAATAATTTCACGAATGACAAAGATATAATAAGTT [CACACA_negctrl_site1430] | 6.98 |
| TCTGTAAATACGTGCACACACAAATCACAAATGTGA [CACACA_site330] | 9.89 |
| TAAAGGTGAACAATACGTACATAAGAACTTATGAGG [XGTACX_site4216] | 6.92 |
| ATAAATACACACAAGTGTACATACTTCTATAAATAT [XGTACX_site1845] | 7.03 |
| TTTCCATATATAGAACGTACAAAGATCTTTGTTACT [XGTACX_site8972] | 7.02 |
| ATACATATATATATGTGTACATATTATATATACATA [XGTACX_site8420] | 7.17 |
| TATATATGGTATAATTGTACTAACGCCAACTATACC [XGTACX_site5853] | 7.06 |
| TTTTTTTTTATGTGCACACAAAAGATGCTTATATTT [CACACA_site2348] | 9.07 |
| TGCATATACATATGTAGTACAATAATTTGAAAAAAA [XGTACX_site5239] | 7.08 |
| TATATATATTTATACACACAAACATAATACTACTTA [CACACA_site2022] | 7.25 |
| TAGCTTTTGCCTTTTTTTAAAAAAAAATAAATAAAT [TGCATGCA_negctrl_site242] | 6.68 |
| TTATTATTTTATAACACACACATATAGATTATAGCT [CACACA_site6787] | 6.95 |
| ATATATATATATATAAAGTGAAGTATGAGGGAAATA [XGTACX_negctrl_site497] | 9.37 |
| TTTTGTATTTATGGATGTACATAATATGTTTTAAAC [XGTACX_site3278] | 7.35 |
| TATGTATGTATTAATGCGCACACAAAAAATAACAAT [CACACA_site8551] | 9.09 |
| AAAAATTAAATATAAAGTACAAAATTAAAATCTTAA [XGTACX_site931] | 6.69 |
| TTTCGTAACTATTTGTGTACATATATATATATATAT [XGTACX_site2920] | 9.52 |

| Sequence | gcPBM binding intensity (ln) |
| --- | --- |
| ATTTTCTTTTCCATAGTGCAATATAATTATCCATCA [GTGCAC_site9547] | 8.36 |
| ATAAATATATGAAATATACACACTTCTTTGGTATTA [CACACA_site456] | 6.64 |
| TATATATATATATACACACACACACCCATATATATA [CACACA_site2538] | 9.33 |
| CTGTATTCATAATTCACACAAATGGTTTATATGAAT [CACACA_site4315] | 7.03 |
| CATACATACAGATATACACACATATATAATAATATA [CACACA_site5477] | 7.14 |
| CATATTTGCACTTTCACACATAAATATATAACTATA [CACACA_site6016] | 8.56 |
| TTTAAACAAGGATCCACACACCCCAAAAAAAAAAGA [CACACA_site680] | 7.28 |
| TTTTTATTTTTGTAGTGTACTTTATTTTTTTTGTTT [XGTACX_site8887] | 7.1 |
| CAAAAGTATAATAATACACACACTTTAAAAGTTAAA [CACACA_site3343] | 6.71 |
| TAGATTCTTGAATAAGTGCAAAATATAATATTTATT | 8.09 |
| AAAAATAAAATAAAATAAAATAAACATACCATATGT [CACACA_negctrl_site594] | 6.92 |
| TTACAAATGGTTTACACACACATAATTGTATCAATT [CACACA_site4167] | 6.87 |
| TAATATATGAGAAATTGTACAGAAAGGAATATGCTT [XGTACX_site5300] | 7.06 |
| TATATATGTTCAATATGTACATATATATAAGTGTAT [XGTACX_site5157] | 7.13 |
| AAGAAATATTTATACACACACACAAACATATATATA [CACACA_site1912] | 7.37 |
| ATATTATTGTAGAAATGTACATATATATATATATAT [XGTACX_site1882] | 9.27 |
| AATACACAAATATATTGTACATATATATATATATAT [XGTACX_site2440] | 9.59 |
| ACTTATTATTAATATTGTACTCTTGAAAATTGTGGA [XGTACX_site6315] | 7.1 |
| CATATATAAATATAAATATATATATATATATATATG [XGTACX_negctrl_site493] | 7.56 |
| ATATATATTTTTTAAACACACACATAAATATTTGTG [CACACA_site8936] | 7.24 |
| TATATATATATATGTGCATGTTCCCCATGCTTCCAT [TGCATGCA_site366] | 9.35 |
| AAAATTATAATAATATGTACTTAAAAAATTTATATA [XGTACX_site632] | 7.12 |

| Sequence | gcPBM binding intensity (ln) |
| --- | --- |
| AATATATATATATATAGTACATATTTTTATTCATTA [XGTACX_site2156] | 7.26 |
| TATATGTATTTATATACACACATATTCTTTTGACAC [CACACA_site1206] | 7.07 |
| TTCTTCAAGGAAAACACATGCGCATTTTCACCAATT [TGCATGCA_site11] | 7 |
| ATATATATATATATATGTACATATGTATATTTTTTT [XGTACX_site1299] | 9.07 |
| ATTTATTTATTTATTTGTACATATAAATATATCAAA [XGTACX_site7383] | 7.13 |
| TATATTTATTTATACACATGCATATTTTAAGGGCTC [TGCATGCA_site885] | 7.24 |
| CATATAATTATATATCGTACATATTAATATAATTAC [XGTACX_site401] | 7.04 |
| AAAGATGTTATATATATGTATATATATATGTAATAT [TGCATGCA_negctrl_site386] | 7.03 |
| AGTATACAGATATATACACACATATATTTATTTATA [CACACA_site6279] | 6.93 |
| AGATATAGGAAAATAATATATATATATTTTTTTTTT [CACACA_negctrl_site461] | 6.93 |
| ATATATATATATATATGTACTTATAAGGTATATTTA [XGTACX_site3327] | 9.28 |
| AAAAAGAAAAAACTTACACACATATATACAGACATG [CACACA_site550] | 7.16 |
| TTATAATCCATAATTGCACACAATATATTCATATTT [CACACA_site3916] | 7.04 |
| AATATACAATAAAGGTGTACACATATATGATGCAAG [XGTACX_site7607] | 7.7 |
| TGGTTAATATGTGAAAGTACATATTATATTAAAATG [XGTACX_site2636] | 7 |
| TACAGATAATATATTGCACACGTCAGAATAATATAG [CACACA_site5036] | 7.31 |
| TATAACTTTTTTATTACACACCTATGCAATATTATA [CACACA_site6570] | 7 |
| ATAAAATAAGATCTTTTTTTTTTTTTTTTCTTTTCT [XGTACX_negctrl_site73] | 6.42 |
| AACAAATAAATAAATAAAAAGCAAATATGTCTATAT [GTGCAC_negctrl_site414] | 7.08 |
| ATATATATATTCCACACACACACAAAAAAAAAAAAA [CACACA_site3648] | 8.3 |
| TTTTTTTTTTTTTTTGCACACAGGGTGTAGGACAAG [CACACA_site2842] | 7.66 |
| CATTTGATAAGATACACACACAAGGAAAAAAATAAA [CACACA_site350] | 6.98 |

| Sequence | gcPBM binding intensity (ln) |
| --- | --- |
| TTATAATATCTATATATCTTTTACATTTATAAGTTT [CACACA_negctrl_site1473] | 6.76 |
| TATAATAATATTAACACACGTACAAAAGCAAACAAC [CACACA_site3494] | 7.96 |
| GTCTATTCAAAAAAGTGTACGGACATATAAACATAC [XGTACX_site6516] | 7.68 |
| TTAGCTATGATATATACACACCAACGAACGAAGAAA [CACACA_site6657] | 7.12 |
| TGCAGTCTGGAGAAAAGTACATAGTATCTGGTATCT [XGTACX_site2545] | 7.02 |
| TTTTTTTTTTTTTCAAGTACATAACTTACCCCTTTT [XGTACX_site6207] | 7.14 |
| TTATATGCATAAAAACGTACAAAAATGTATTCATGT [XGTACX_site2215] | 7.07 |
| GTTATAGAAGCATTCACACACACACCCACATACACA [CACACA_site1465] | 7.3 |
| AAACGATTACTGTGTACACACATAGTTATAAACATA [CACACA_site5195] | 7 |
| GAATGTTAACGTTGCACACAAAAAAAAAGTATACAT [CACACA_site2415] | 7.32 |
| TTACATAATATATGTACACACGCAAATACTTAGAAT [CACACA_site320] | 7.17 |
| AGGATATGCAGACACACACACATATATATATATATA [CACACA_site2201] | 9.61 |
| TTTTTTAATAATAGGAAAATGAATATTATATCGAAT [TGCATGCA_negctrl_site543] | 6.92 |
| ATATATGTGTATGTATGTACTCATTTTTGTATATAT [XGTACX_site490] | 7.08 |
| AAACAAAGAAAGAACACACATACACAATATACCTAC [CACACA_site2835] | 6.89 |
| TTATATATTTATATTTGTACGTATAAATTTTTTTTT [XGTACX_site2833] | 7.02 |
| TATTTTGAAAAAGTTGCACACAAAATTTAAAAAAAA [CACACA_site8470] | 7.42 |
| CATTTAAATTATAAGTGTACACGATCATATTTCATC [XGTACX_site349] | 7.08 |
| ATAATGATATATTATAAACACACAAAGATGAATATA [CACACA_site8914] | 6.86 |
| CCAACATTTTTTAGAAGTACATTTTTATATTTATTA [XGTACX_site5179] | 6.96 |
| TATATATATATATATGTACACACATATATACCTTTC [CACACA_site8854] | 9.28 |
| AAATAAAAACATAACAGTACAGTTAACATTTTTATA [XGTACX_site3479] | 6.89 |
